One molecule from patent US12319739 (F STAR DELTA, dated 2025) can be followed below.

The assay deals with T1, human CD137 ligand on DO11.10 cells (human, UniProt P41273).
T1 construct: whole, on cells
The assay can be described thus: flow cytometry, detected with anti mouse Fc antibody.

T1 sequence (P41273 whole entry): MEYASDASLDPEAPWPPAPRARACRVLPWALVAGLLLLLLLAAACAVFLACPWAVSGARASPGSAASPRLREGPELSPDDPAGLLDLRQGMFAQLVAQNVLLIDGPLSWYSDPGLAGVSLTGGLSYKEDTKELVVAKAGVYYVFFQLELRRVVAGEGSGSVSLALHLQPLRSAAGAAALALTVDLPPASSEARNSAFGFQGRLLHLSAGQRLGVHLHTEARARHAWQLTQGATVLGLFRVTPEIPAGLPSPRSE

B1: hCD137-mFc-Avi (Fc fusion, not shown: a dimerising Fc or GST; small tags and cut ends)
chain: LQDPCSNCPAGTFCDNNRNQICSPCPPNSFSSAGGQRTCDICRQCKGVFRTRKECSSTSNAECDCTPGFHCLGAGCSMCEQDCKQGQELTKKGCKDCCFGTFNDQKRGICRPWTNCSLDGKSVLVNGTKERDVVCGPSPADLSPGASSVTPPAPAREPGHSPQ
modifications: one biotin on each Avi tag in the biotinylated form
notes: also called human dimeric CD137; human CD137-mFc-Avi
For the molecule B1, the binding result is reported as “binds”.
